Experimental data from the supplement of paper PMC4604168 (melanoma cell lines).
This is one part of the list. Repeats are few or missing, and single values can be far off.

How the values were obtained:
Experiment in all cases: cell count relative to DMSO control; melanoma cells; higher = more viable cells
Conditions in all cases: library dose: standard library concentration; 72 h
SkMel28 = test system: SkMel28
SkMel2 = test system: SkMel2
SkMel30 = test system: SkMel30
SkMel5 = test system: SkMel5
UACC257 = test system: UACC257
UACC62 = test system: UACC62
WM115 = test system: WM115
WM1716 = test system: WM1716
WM1745 = test system: WM1745
WM3526 = test system: WM3526
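Also: cells treated in 1,536-well plates, then fixed and DAPI-stained, with nuclei counted from automated high-throughput microscope images.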

Structure (SMILES) | cell count (SkMel28) [%] | cell count (SkMel2) [%] | cell count (SkMel30) [%] | cell count (SkMel5) [%] | cell count (UACC257) [%] | cell count (UACC62) [%] | cell count (WM115) [%] | cell count (WM1716) [%] | cell count (WM1745) [%] | cell count (WM3526) [%]
C=C(c1ccc(C(=O)O)cc1)c1cc2c(cc1C)C(C)(C)CCC2(C)C [Bexarotene] + Nc1cccc2c1CN(C1CCC(=O)NC1=O)C2=O [lenalidomide] (first compound 10 µM, partner dose 5 µM) | 59.3 | 84.6 | 101 | 82.6 | 81.8 | 62.1 | 63.9 | 84.1 | 79.8 | 80.3
CS(=O)(=O)c1ccc(C(=O)Nc2ccc(Cl)c(-c3ccccn3)c2)c(Cl)c1 [vismodegib] + Nc1ncn([C@H]2C[C@H](O)[C@@H](CO)O2)c(=O)n1 [decitabine] (first compound 5 µM, partner dose 0.5 µM) | 117 | 95.7 | 113 | 92.3 | 84.1 | 68.3 | 77.3 | 89.1 | 82 | 105
NC1(c2ccc(-c3nc4ccn5c(=O)[nH]nc5c4cc3-c3ccccc3)cc2)CCC1 + COCC[n+]1c2c(n(Cc3cnccn3)c1C)C(=O)c1ccccc1C2=O [YM155] (first compound 2 µM, partner dose 0.002 µM) | 18.4 | 22 | 62.8 | 26.1 | 18 | 53.6 | 45.2 | 46.3 | 78.1 | 32.8
CN(c1ncccc1CNc1nc(Nc2ccc3c(c2)CC(=O)N3)ncc1C(F)(F)F)S(C)(=O)=O + COc1cc(Nc2ncc(F)c(Nc3ccc4c(n3)NC(=O)C(C)(C)O4)n2)cc(OC)c1OC [Tamatinib] (first compound 0.4 µM, partner dose 2 µM) | 55.1 | 70.7 | 101 | 55.9 | 82.5 | 84 | 45.4 | 49.2 | 25.8 | 74.3
CN(c1ncccc1CNc1nc(Nc2ccc3c(c2)CC(=O)N3)ncc1C(F)(F)F)S(C)(=O)=O + NC1(c2ccc(-c3nc4ccn5c(=O)[nH]nc5c4cc3-c3ccccc3)cc2)CCC1 [MK2206] (first compound 0.4 µM, partner dose 2 µM) | 52.5 | 59.1 | 95 | 51.8 | 65.1 | 50 | 56.1 | 68.5 | 70.9 | 63.9
C=C(c1ccc(C(=O)O)cc1)c1cc2c(cc1C)C(C)(C)CCC2(C)C [Bexarotene] + COCC[n+]1c2c(n(Cc3cnccn3)c1C)C(=O)c1ccccc1C2=O [YM155] (first compound 10 µM, partner dose 0.002 µM) | 72.3 | 81.7 | 112 | 64.6 | 27.7 | 71 | 116 | 76.4 | 92.4 | 86.9
CS(=O)(=O)c1ccc(C(=O)Nc2ccc(Cl)c(-c3ccccn3)c2)c(Cl)c1 [vismodegib] + O=C(Nc1cccc(Cl)c1)Nc1ncc(CCNc2ncnc3ccsc23)s1 [SNS314] (first compound 5 µM, partner dose 0.004 µM) | 62.6 | 92.4 | 93 | 96.5 | 83.2 | 76.3 | 55.1 | 50.2 | 95.1 | 75.4
CCCS(=O)(=O)Nc1ccc(F)c(C(=O)c2c[nH]c3ncc(Cl)cc23)c1F + Cn1cncc1[C@@](N)(c1ccc(Cl)cc1)c1ccc2c(c1)c(-c1cccc(Cl)c1)cc(=O)n2C [tipifarnib] (first compound 0.4 µM, partner dose 0.05 µM) | 29.9 | 70 | 81.7 | 47.1 | 73.9 | 49.9 | 54 | 57.9 | 63.5 | 51.3
CN(c1ncccc1CNc1nc(Nc2ccc3c(c2)CC(=O)N3)ncc1C(F)(F)F)S(C)(=O)=O + O=C(O)[C@@H]1[O][Sb](=[O])([O][Sb]2(=[O])[O][C@H]([C@H](O)CO)[C@H](O)[C@H](C(=O)O)[O]2)[O][C@H]([C@H](O)CO)[C@@H]1O [stibogluconate] (first compound 0.4 µM, partner dose 10 µM) | 92.6 | 96 | 92.9 | 77.2 | 83.4 | 67.5 | 95.8 | 75.9 | 71.5 | 96.7
CCCS(=O)(=O)Nc1ccc(F)c(C(=O)c2c[nH]c3ncc(Cl)cc23)c1F + C#Cc1cccc(Nc2ncnc3cc(OCCOC)c(OCCOC)cc23)c1 [erlotinib] (first compound 0.4 µM, partner dose 4 µM) | 28.4 | 88.9 | 63.6 | 65.3 | 93.2 | 34.9 | 75.8 | 71.7 | 59.7 | 41.5
CN(c1ncccc1CNc1nc(Nc2ccc3c(c2)CC(=O)N3)ncc1C(F)(F)F)S(C)(=O)=O + C=CCNC1=C2C[C@@H](C)C[C@H](OC)[C@H](O)[C@@H](C)/C=C(\C)[C@H](OC(N)=O)[C@@H](OC)/C=C\C=C(/C)C(=O)NC(=CC1=O)C2=O [Tanespimycin] (first compound 0.4 µM, partner dose 0.01 µM) | 58.7 | 68.6 | 97.8 | 54.8 | 80.7 | 57.2 | 35.1 | 69.2 | 39.5 | 91.1
